# Measured values reported in patent US5731409A, “Polypeptides with type I collagen activity” (Regents of the University of Minnesota, priority 1994, dated 1998).
# Part of at least one peptide drawing is inferred or uncertain, most often the ends. Some compounds share one wording; it may come from a single statement. No end group written: not given here.
# What was measured:
# Assay type in all cases: cell-based
# [1] = test system: normal breast stromal cells (Hs578Bst); assay: Adhesion of normal breast stromal cells to polypeptide-coated microtiter wells; conditions: wells coated with 74 μL of 10 μg/ml polypeptide; 30-60 min at 37° C.; compared with type I collagen and ovalbumin controls; FIG. 1
# [2] = test system: breast carcinoma cells (Hs578T); assay: Adhesion of breast carcinoma cells to polypeptide-coated microtiter wells; conditions: wells coated with 74 μL of 10 μg/ml polypeptide; 30-60 min at 37° C.; compared with type I collagen and ovalbumin controls; FIG. 2
# [3] = test system: normal breast stromal cells (Hs578Bst); assay: Polypeptide-mediated cell motility in microchemotaxis chambers, normal breast stromal cells; conditions: 48-well microchemotaxis chamber, 6 hr at 37° C.; compared with type I collagen control; FIG. 3
# [4] = test system: breast carcinoma cells (Hs578T); assay: Polypeptide-mediated cell motility in microchemotaxis chambers, breast carcinoma cells; conditions: 48-well microchemotaxis chamber, 6 hr at 37° C.; compared with type I collagen control; FIG. 4
Sequence,adhesion of normal breast stromal cells (Hs578Bst) to coated polypeptide [1],adhesion of breast carcinoma cells (Hs578T) to coated polypeptide [2],polypeptide mediated motility of normal breast stromal cells (Hs578Bst) [3],polypeptide mediated motility of breast carcinoma cells (Hs578T) [4]
"GSKGPRGTTGPAGR [SEQ ID NO:14, GSKGPRGTTGPAGR]",promoted adhesion as well as or better than type I collagen,promoted adhesion as well as or better than type I collagen,,
"GAKGQPGPAGPKG [SEQ ID NO:17, GAKGQPGPAGPKG]",,no apparent adhesion in excess of that observed with ovalbumin,,
"GPKGAAGEPGKP [SEQ ID NO:1, GPKGAAGEPGKP]",promoted adhesion as well as or better than type I collagen,promoted adhesion as well as or better than type I collagen,,
"GRPGPAGPPGARGQA [SEQ ID NO:11, GRPGPAGPPGARGQA]",no apparent adhesion in excess of that observed with ovalbumin,no apparent adhesion in excess of that observed with ovalbumin,,
"GMKGHRGFSGLDGAK [SEQ ID NO:18, GMKGHRGFSGLDGAK]",promoted adhesion as well as or better than type I collagen,promoted adhesion as well as or better than type I collagen,,
"GARGPAGPQGPRGDK [SEQ ID NO:12, GARGPAGPQGPRGDK]",promoted adhesion as well as or better than type I collagen,promoted adhesion as well as or better than type I collagen,mediated cell motility to an extent nearly as great as type I collagen,mediated cell motility to an extent nearly as great as or in excess of type I collagen
GPKGNSGEPGAPGNKGDTGAK [SEQ ID NO:13],promoted adhesion as well as or better than type I collagen,promoted adhesion as well as or better than type I collagen,mediated cell motility to an extent nearly as great as type I collagen,mediated cell motility to an extent nearly as great as or in excess of type I collagen
"GRDGAAGPKGDR [SEQ ID NO:6, GRDGAAGPKGDR]",promoted adhesion as well as or better than type I collagen,promoted adhesion as well as or better than type I collagen,mediated cell motility to an extent nearly as great as type I collagen,mediated cell motility to an extent nearly as great as or in excess of type I collagen
"GKEGSKGPRGTT [SEQ ID NO:5, GKEGSKGPRGTT]",promoted adhesion as well as or better than type I collagen,promoted adhesion as well as or better than type I collagen,mediated cell motility to an extent nearly as great as type I collagen,mediated cell motility to an extent nearly as great as or in excess of type I collagen
"GPVGPAGKNGDR [SEQ ID NO:10, GPVGPAGKNGDR]",promoted adhesion as well as or better than type I collagen,promoted adhesion as well as or better than type I collagen,mediated cell motility to an extent nearly as great as type I collagen,mediated cell motility to an extent nearly as great as or in excess of type I collagen
"GAPGPKGARGSA [SEQ ID NO:4, GAPGPKGARGSA]",no apparent adhesion in excess of that observed with ovalbumin,no apparent adhesion in excess of that observed with ovalbumin,,
"GPRGLPGERGRPGPSG [SEQ ID NO:15, GPRGLPGERGRPGPSG]",promoted adhesion as well as or better than type I collagen,promoted adhesion as well as or better than type I collagen,,
"GPAGKDGEAGAQG [SEQ ID NO:20, GPAGKDGEAGAQG]",,,mediated cell motility to an extent nearly as great as type I collagen,Motility was apparently not promoted
"GAPGDKGLRGLT [SEQ ID NO:19, GAPGDKGLRGLT]",promoted adhesion as well as or better than type I collagen,promoted adhesion as well as or better than type I collagen,,
"GAKGDRGDPGPK [SEQ ID NO:8, GAKGDRGDPGPK]",promoted adhesion as well as or better than type I collagen,promoted adhesion as well as or better than type I collagen,mediated cell motility to an extent nearly as great as type I collagen,mediated cell motility to an extent nearly as great as or in excess of type I collagen
"GKRGARGEPGPA [SEQ ID NO:2, GKRGARGEPGPA]",promoted adhesion as well as or better than type I collagen,promoted adhesion as well as or better than type I collagen,,
"GDRGMKGHR [SEQ ID NO:9, GDRGMKGHR]",promoted adhesion as well as or better than type I collagen,promoted adhesion as well as or better than type I collagen,mediated cell motility to an extent nearly as great as type I collagen,mediated cell motility to an extent nearly as great as or in excess of type I collagen
